PMC12136788
This is one part of the list.

B1: chr4:134969704:134969705:-_ENSMUSG00000059713_ENSMUST00000030606|mus_hu|FALSE|FALSE (ssRNA)
RNA: GGGAGUUCUACAGUCCGACGAUCUUUUCCACUGCUUAAUUAUGUGUGAGAUUUUCCCUUUUAAAAUAAAUCUAUGGUCUGUGAAAUAGUCUGUAUAAAAAUAUGAAGCCUUGAAUAGGCCAGUCAUAGCAGUUCCGUCUUGAACAACAGAGGAUUGAGCAUCA
B2: chr3:148479741:148479742:-_ENSMUSG00000028184_ENSMUST00000106128|mus_hu|FALSE|FALSE (ssRNA)
RNA: GGGAGUUCUACAGUCCGACGAUCUUAAAGCCUACGUCUUGUAUAUAAUACAAUGCAGGCCUACAAAAAUGGUGCAGCCAUAUUUACAAAUUUAGUUCACAGACUGCUGCAGUAAAAUGGCUGGAAAGUUUUGUUUUGCUUGUUCAACAGAGGAUUGAGCAUCA
B3: chr1:225977196:225977197:+_ENSG00000143742_ENST00000304786|hu_mus|motif|central (ssRNA)
RNA: GGGAGUUCUACAGUCCGACGAUCAUUCCGUUUCCAAAAAUAAAGGUUUUCUAACUGGAAACCCCGACAUUCCUACUCUCGGAAGCAAACUUUAGGACGCAGGCUGGUCUCUCGGCUUUGACAGCUCCAUUACGUAAGUAUAUCCAACAGAGGAUUGAGCAUCA
B4: chr3:139257661:139257662:-_ENSG00000114115_ENST00000232219|hu_mus|FALSE|FALSE (ssRNA)
RNA: GGGAGUUCUACAGUCCGACGAUCCACACACUGGAGUUUGUCACCAUCCCAGCUCACAGUGGUCAUGCACUUGCGGUCGUCUAUGCCUGUCAGAUCUUCCUCAAACUCCUUCCCAACUUGGAAGUCCAUGAUAUAGUUCCGAAACAACAGAGGAUUGAGCAUCA
B5: chr5:125867735:125867736:-_ENSMUSG00000008348_ENSMUST00000136312|mus_mus|motif|central (ssRNA)
RNA: GGGAGUUCUACAGUCCGACGAUCGGUUUUGCCUGUCAGGGUCUUCACAAAGAUCUGCAUCCCACCUCUGAGGCGAAGGACGGAGUGCAGGGUGGACUCUUUCUGGAUGUUGUAGUCUGACAGGGUGCGGCCAUCUUCCAGCUGCAACAGAGGAUUGAGCAUCA
B6: chr12:39756943:39756944:-_ENSG00000139116_ENST00000544797|hu_mus|hu_hu_hu_mus_False|1_98 (ssRNA)
RNA: GGGAGUUCUACAGUCCGACGAUCGGUUUGGCUGUUACCCCCGAGGGAAUCCUGCAAGAGUCUUGUCAGCUUAGAGUCUCUGUAAGGGACAUGGGUGGCUCUCUUGCUCUUGUCCCCCAAGGCGCUGAUUACAUUCCCAAGUGCCAACAGAGGAUUGAGCAUCA
B7: chr12:55961440:55961441:-_ENSMUSG00000062929_ENSMUST00000078124|mus_hu|FALSE|FALSE (ssRNA)
RNA: GGGAGUUCUACAGUCCGACGAUCGAUAUUCAAAAUAUCUUUAGUGUUGCAGGACUCACAUGGUAAACAUAAAACUCCUACACUUAUUCAGUAGUGUACACUCAAUGGAAAACAAAAAGGCAUUAAUAACAGCUAUUUCUUUUACAACAGAGGAUUGAGCAUCA
B8: chr20:57566945:57566946:+_ENSG00000101158_ENST00000344018|hu_hu|FALSE|FALSE (ssRNA)
RNA: GGGAGUUCUACAGUCCGACGAUCGUGAACGGUUUCGACAGCUUUUGACGUUGACUUCAGCUCAUCUUUAUUGAUGCUCACUCGCUUGUUCUUCUUCCAGGUCUCAACCACGCUUGCUGCGUACGCCAAGAUGUGGAUGUAUUUCAACAGAGGAUUGAGCAUCA
B9: chr11:119170673:119170674:+_ENSG00000110395_ENST00000264033|hu_hu|motif|central (ssRNA)
RNA: GGGAGUUCUACAGUCCGACGAUCGUGGGAACUGAAGGACACCUUCAAAUGCACUCAAGACCCAUAAAAUAAUAAAACAUACGGGCUGCUCCAUUUUCAUUUCACCACUUUGAAAUCUUGGAACCACUGAUGUGAUAUCCCACACAACAGAGGAUUGAGCAUCA
B10: chr19:53710959:53710960:+_ENSMUSG00000024974_ENSMUST00000025930|mus_hu|FALSE|FALSE (ssRNA)
RNA: GGGAGUUCUACAGUCCGACGAUCACGAAUCUCAUCAUUCAGUGCAUCUACUCUCUUCUGAUCUUCCAAACUCAGUUGAGAAAGCAAAUCAGUUCCCAGUUCUGCUUUCAAUGACUCUCUGGUAGACUCCAUAGCAUGCAAGCUCAACAGAGGAUUGAGCAUCA
B11: chr11:68836070:68836071:+_ENSMUSG00000020898_ENSMUST00000116359|mus_mus|FALSE|FALSE (ssRNA)
RNA: GGGAGUUCUACAGUCCGACGAUCCCUCACAUACAGGCUUCCACUCCUACAUUCUUGUUCCGAAUCUCCCAAUAGGUCUACUAGUGUCCCUAAAAGUAUCAGCUGCUCCCGGGGCAGGACGCCGUCCCCCGGCCGGCCUCCGCGCAACAGAGGAUUGAGCAUCA
B12: 32611910_32612235_191_CDS_ENSG00000144635_ENST00000273130|human|control|control (ssRNA)
RNA: GGGAGUUCUACAGUCCGACGAUCCCAAAGGUUCUGCCCGUCCUCGUCGUCGCCUGCCGCGGCGCCACCGUUGCCCGACGCUAUCUCGUUGCCCAAGGGGCCGCCAGUGUAAGUCGAGGAUAAUCCCGGCGGAGAAGAACCGAACAACAGAGGAUUGAGCAUCA
B13: 32637644_32637764_2913_3pUTR_ENSG00000025800_ENST00000373625|human|control|control (ssRNA)
RNA: GGGAGUUCUACAGUCCGACGAUCAUCUCUUUUUGGUCUUCCUCACAGUAUCCUACUUACCGAAAUGACAGACAGUUCUUCCUCUUGAGACCAAUUAAGAUUGACCUACCUAAUAUAUAGAAUAUAAAAAAAUACAGAACUUUUCAACAGAGGAUUGAGCAUCA
B14: 48026265_48026385_864_CDS_ENSG00000116062_ENST00000540021|human|control|control (ssRNA)
RNA: GGGAGUUCUACAGUCCGACGAUCAAAGUUCUGAGACUUAAUCUGCCACCACUUCCUCAUCCCAGGAGUACAAGAAUUGAGGAAAUCCUCAGGCACAUAGAGUGUAGAUGCAUCAAAAUCGGGGUGAUCAGGCCUCCUCCUGUGCAACAGAGGAUUGAGCAUCA
B15: chr15:41988372:41988373:+_ENSG00000174197_ENST00000570161|hu_hu|motif|central (ssRNA)
RNA: GGGAGUUCUACAGUCCGACGAUCUGUCUCUUCCUGUUUCACAGUGACCCCUUCUGGGCACUCACCAAGUUCGUAGUCAUAAUCAUCGGGAGGUUCCUCUUUAAUAACAACAUUGAAGCUUCCGUUCUGGUCUAACGGUGAGGCCAACAGAGGAUUGAGCAUCA
B16: chr5:145543945:145543946:-_ENSG00000133706_ENST00000545646|hu_hu|hu_hu_hu_mus_True|48_78 (ssRNA)
RNA: GGGAGUUCUACAGUCCGACGAUCCUGAACGGCCAGUGGUGGGAAAUAAUCAAGCCAAUGUUCUGCUUCAGAAAACUUCACUAUGUCUUCAUCAGACAGCCCAAGGGAUUUCAUAAUGUCCCACUGGUACUUAGAAGAUCCUGCCAACAGAGGAUUGAGCAUCA
B17: 153533148_153533268_1283_CDS_ENSG00000196504_ENST00000410080|human|control|control (ssRNA)
RNA: GGGAGUUCUACAGUCCGACGAUCGGCUGCAGCUGCUGCUGCUGCUGCCGCUGCUGCUGCUGCAACAACAGCAGCUGCUGCUUCGGCAGCAGCCAUGGUGCUCAUUGUGGUCGGAAUUUCUGUUGUAGGGACUGGGGCUGUUGACAACAGAGGAUUGAGCAUCA
B18: chrX:71549400:71549401:+_ENSMUSG00000019087_ENSMUST00000019231|mus_hu|mus_mus_mus_hu_False|58_68 (ssRNA)
RNA: GGGAGUUCUACAGUCCGACGAUCGCAGUAGGAAGAGGGAAGCUCUUCAGUCCAGUGCGCUGCAGGGAGAAACAUGACAACCUAGACCACCGUCCCACCCUCAACCCCCCCACUGGCACAGGGUCACACAAUCUGGGUCAAAGACAACAGAGGAUUGAGCAUCA
B19: chr12:54126753:54126754:+_ENSMUSG00000061603_ENSMUST00000095737|mus_mus|FALSE|FALSE (ssRNA)
RNA: GGGAGUUCUACAGUCCGACGAUCCUGCUCCUCUGACAUCAUCAGGUCGUGGCUGUCCAUCACAAGGGACUCCAUGUCAAUCAGCCAAUCCCAGAGCUCCUGAUAUUCUGAAUCAAAGUCCAGAAGCCCAUUGCUUCCCACCGACAACAGAGGAUUGAGCAUCA
B20: chr7:54825262:54825263:-_ENSG00000132432_ENST00000352861|hu_hu|hu_hu_hu_mus_False|68_68 (ssRNA)
RNA: GGGAGUUCUACAGUCCGACGAUCCUGCCGGCUGGGCUCCACAAACUGCAUUACCUGAUCCAUGUUUUACCCAACCGGGAUUGAGAGCGUAGAGACACGUAGCUCAGGAGAGAACCGAGCCCAACGGAACCGGAAGCUGGCAACCAACAGAGGAUUGAGCAUCA
B21: 58102184_58102304_1280_3pUTR_ENSG00000171649_ENST00000597850|human|control|control (ssRNA)
RNA: GGGAGUUCUACAGUCCGACGAUCUCCAGUGUGAAUUCUUCGGUGUUGAUUAAGAAUGGCACUUUGACUAAAGGAAUUCCCACAUUCACCACACUUAUAAGGCCUUUCUCCAGUGUGAACUCUUUGGUGUUUAACAAGGGUGGCCAACAGAGGAUUGAGCAUCA
B22: chr19:47151266:47151267:-_ENSG00000197380_ENST00000391916|hu_mus|motif|central (ssRNA)
RNA: GGGAGUUCUACAGUCCGACGAUCACUCUGUAGGCAUAACCUGAGUCAGACAGUCUCUGACUUGGGGGCCCCAGGGGGUAUCCGGAGGGUCCAGGGACAUGGAGGGGGCACUUUGUGAAUGAGAAGGGGACCCUAUCUGGGCAACAACAGAGGAUUGAGCAUCA

These binders were tested against T1, UNK ZnF1-3 (human, UniProt Q9C0B0 31-174) (assay: nsRBNS (natural sequence RNA bind-n-seq); RBNS binding buffer (assumed for nsRBNS): 25 mM Tris pH 7.5, 150 mM KCl, 3 mM MgCl2, 0.01% Triton X-100, 500 ug/ml BSA, 20 U/ml SUPERase-In, 4 C; UNK is unkempt and MSI1 is Musashi-1; names of the RNAs are library labels; protein concentration not given here; high values mean tight binding).
T1 sequence: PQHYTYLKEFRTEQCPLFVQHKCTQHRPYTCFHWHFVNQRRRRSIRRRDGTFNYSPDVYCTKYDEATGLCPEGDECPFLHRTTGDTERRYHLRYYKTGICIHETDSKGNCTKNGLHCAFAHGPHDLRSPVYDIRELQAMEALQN

| Binder | binding signal |
| --- | --- |
| B1 | 1.61 enrichment R |
| B2 | 0.526 enrichment R |
| B3 | 1.07 enrichment R |
| B4 | 0.87 enrichment R |
| B5 | 0.652 enrichment R |
| B6 | 0.542 enrichment R |
| B7 | 1 enrichment R |
| B8 | 0.302 enrichment R |
| B9 | 1.21 enrichment R |
| B10 | 1.03 enrichment R |
| B11 | 1.16 enrichment R |
| B12 | 0.938 enrichment R |
| B13 | 1.08 enrichment R |
| B14 | 1.75 enrichment R |
| B15 | 0.861 enrichment R |
| B16 | 0.752 enrichment R |
| B17 | 0.774 enrichment R |
| B18 | 2.04 enrichment R |
| B19 | 1.24 enrichment R |
| B20 | 0.92 enrichment R |
| B21 | 0.883 enrichment R |
| B22 | 1.3 enrichment R |
